Measurements taken from the supplement of paper PMC4967469.

Key:
Assay in all cases: Viability of human cancer cell lines after 72 h of drug (GDSC screen)
Mitomycin C = compound: CO[C@@]12[C@H](COC(N)=O)C3=C(C(=O)C(C)=C(N)C3=O)N1C[C@@H]1N[C@@H]12 [Mitomycin C]; conditions: top dose 16 µM
Protocol: (§1)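 Human cancer cell lines in 384-well plates, medium with 10% serum, drug for 72 h over a 256-fold dose range (nine 2-fold or five 4-fold steps up to the top dose). Adherent lines were fixed and stained with the nucleic acid dye Syto60, suspension lines read with resazurin; signal relative to control wells, capped at 0 and 100%. One two-parameter sigmoid per drug and line, fitted in a mixed model over all curves with the slope shared within a line.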

Roscovitine = compound: CC[C@H](CO)Nc1nc(NCc2ccccc2)c2ncn(C(C)C)c2n1 [Roscovitine]; conditions: top dose 16 µM; top dose inferred
Protocol: as §1

IOX2 = compound: O=C(O)CNC(=O)c1c(O)c2ccccc2n(Cc2ccccc2)c1=O [IOX2]; conditions: top dose 0.1 µM; top dose inferred
Protocol: as §1

Bosutinib = compound: COc1cc(Nc2c(C#N)cnc3cc(OCCCN4CCN(C)CC4)c(OC)cc23)c(Cl)cc1Cl [Bosutinib]; conditions: top dose 2 µM
Protocol: as §1

NVP-BHG712 = compound: Cc1ccc(C(=O)Nc2cccc(C(F)(F)F)c2)cc1Nc1nc(-c2cccnc2)nc2c1cnn2C [NVP-BHG712]; conditions: top dose 10.24 µM; top dose inferred
Protocol: as §1

Midostaurin = compound: CO[C@@H]1[C@H](N(C)C(=O)c2ccccc2)C[C@H]2O[C@]1(C)n1c3ccccc3c3c4c(c5c6ccccc6n2c5c31)C(=O)NC4 [Midostaurin]; conditions: top dose 0.512 µM; top dose inferred
Protocol: as §1

Row | Cell Line | AUC (Mitomycin C) | pIC50 (Mitomycin C) | AUC (Roscovitine) | pIC50 (Roscovitine) | AUC (IOX2) | pIC50 (IOX2) | AUC (Bosutinib) | pIC50 (Bosutinib) | AUC (NVP-BHG712) | pIC50 (NVP-BHG712) | AUC (Midostaurin) | pIC50 (Midostaurin)
1 | GB-1 (glioma, adherent) | 0.422 | 6.23 | 0.929 | < 4.80 | 0.98 | < 7.00 | 0.948 | < 5.70 | 0.83 | 5.09 | 0.881 | < 6.29
2 | GDM-1 (acute myeloid leukaemia, suspension) | 0.359 | 6.38 | 0.906 | < 4.80 | 0.986 | < 7.00 | 0.974 | < 5.70 | 0.175 | 7.15 | 0.749 | 6.80
3 | GI-1 (glioma, adherent) | 0.128 | 7.15 | 0.849 | 4.95 | 0.985 | < 7.00 | 0.986 | < 5.70 | 0.914 | < 4.99 | 0.824 | 6.54
4 | GI-ME-N (neuroblastoma, adherent) | 0.524 | 5.92 | 0.884 | < 4.80 | 0.969 | < 7.00 | 0.9 | < 5.70 | 0.796 | 5.16 | 0.729 | 6.73
5 | GOTO (neuroblastoma, adherent) | 0.435 | 6.19 | 0.881 | < 4.80 | 0.963 | < 7.00 | 0.957 | < 5.70 | 0.886 | < 4.99 | 0.952 | < 6.29
6 | GR-ST (lymphoblastic leukaemia, suspension) | 0.301 | 6.61 | 0.979 | < 4.80 | 0.969 | < 7.00 | 0.973 | < 5.70 | 0.869 | < 4.99 | 0.916 | < 6.29
7 | GRANTA-519 (B-cell lymphoma, suspension) | 0.259 | 6.65 | 0.987 | < 4.80 | 0.989 | < 7.00 | 0.868 | 5.82 | 0.941 | < 4.99 | 0.961 | < 6.29
8 | GT3TKB (stomach, adherent) | 0.275 | 6.60 | 0.96 | < 4.80 | 0.989 | < 7.00 | 0.949 | < 5.70 | 0.987 | < 4.99 | 0.867 | 6.43
9 | HA7-RCC (kidney, adherent) | 0.133 | > 7.20 | 0.938 | < 4.80 | 0.983 | < 7.00 | 0.947 | < 5.70 | 0.822 | 5.17 | 0.853 | 6.33
10 | HC-1 (hairy cell leukaemia, suspension) | 0.222 | 6.79 | 0.916 | < 4.80 | 0.984 | < 7.00 | 0.969 | < 5.70 | 0.787 | 5.37 | 0.922 | < 6.29
11 | HCC1187 (breast, suspension) | 0.672 | 5.53 | 0.96 | < 4.80 | 0.988 | < 7.00 | 0.959 | < 5.70 | 0.898 | < 4.99 | 0.928 | < 6.29
12 | HCC2157 (breast, suspension) | 0.46 | 6.11 | 0.972 | < 4.80 | 0.985 | < 7.00 | 0.971 | < 5.70 | 0.987 | < 4.99 | 0.903 | < 6.29
13 | HCC2218 (breast, suspension) | 0.418 | 6.25 | 0.876 | < 4.80 | 0.982 | < 7.00 | 0.963 | < 5.70 | 0.934 | < 4.99 | 0.98 | < 6.29
14 | HD-MY-Z (Hodgkin lymphoma, adherent) | 0.455 | 6.12 | 0.887 | < 4.80 | 0.984 | < 7.00 | 0.857 |  | 0.822 | 5.22 | 0.984 | < 6.29
15 | HDLM-2 (Hodgkin lymphoma, suspension) | 0.554 | 5.85 | 0.98 | < 4.80 | 0.981 | < 7.00 | 0.852 | 5.82 | 0.986 | < 4.99 | 0.959 | < 6.29
16 | HSC-39 (stomach, suspension) | 0.657 | 5.59 | 0.98 | < 4.80 | 0.968 | < 7.00 | 0.833 | 5.98 | 0.991 | < 4.99 | 0.977 | < 6.29
17 | HT (B-cell lymphoma, suspension) | 0.57 | 5.82 | 0.892 | < 4.80 | 0.989 | < 7.00 | 0.984 | < 5.70 | 0.912 | < 4.99 | 0.974 | < 6.29
18 | HUTU-80 (digestive system, adherent) | 0.045 | > 7.20 | 0.972 | < 4.80 | 0.977 | < 7.00 | 0.962 | < 5.70 | 0.87 | 5.16 | 0.727 | 6.91
19 | IMR-5 (neuroblastoma, adherent) | 0.036 | > 7.20 | 0.954 | < 4.80 | 0.991 | < 7.00 | 0.978 | < 5.70 | 0.937 | < 4.99 | 0.891 | 6.36
20 | IST-MEL1 (melanoma, adherent) | 0.101 | > 7.20 | 0.937 | < 4.80 | 0.95 | < 7.00 | 0.915 | < 5.70 | 0.92 | < 4.99 | 0.895 | < 6.29
21 | IST-SL1 (small cell lung carcinoma, semi-adherent) | 0.518 | 5.95 | 0.92 | < 4.80 | 0.983 | < 7.00 | 0.978 | < 5.70 | 0.807 | 5.27 | 0.939 | < 6.29
22 | JJN-3 (haematopoietic neoplasm, suspension) | 0.708 | 5.47 | 0.938 | < 4.80 | 0.985 | < 7.00 | 0.972 | < 5.70 | 0.829 | 5.31 | 0.964 | < 6.29

Row | Cell Line | AUC (Mitomycin C) | pIC50 (Mitomycin C) | AUC (Roscovitine) | pIC50 (Roscovitine) | AUC (IOX2) | pIC50 (IOX2) | AUC (Bosutinib) | pIC50 (Bosutinib) | AUC (NVP-BHG712) | pIC50 (NVP-BHG712) | AUC (Midostaurin) | pIC50 (Midostaurin)
23 | JM1 (B-cell lymphoma, suspension) | 0.183 | 6.87 | 0.951 | < 4.80 | 0.984 | < 7.00 | 0.92 | < 5.70 | 0.885 | 5.07 | 0.886 | 6.37
24 | JURL-MK1 (chronic myeloid leukaemia, suspension) | 0.233 | 6.77 | 0.974 | < 4.80 | 0.97 | < 7.00 | 0.747 | 6.20 | 0.097 | > 7.40 | 0.94 | < 6.29
25 | JVM-2 (lymphoid neoplasm, suspension) | 0.378 | 6.37 | 0.954 | < 4.80 | 0.958 | < 7.00 | 0.825 | 5.80 | 0.891 | < 4.99 | 0.963 | < 6.29
26 | JVM-3 (lymphoid neoplasm, suspension) | 0.652 |  | 0.987 | < 4.80 | 0.982 | < 7.00 | 0.752 | 6.17 | 0.887 | < 4.99 | 0.985 | < 6.29
27 | JiyoyeP-2003 (Burkitt lymphoma, suspension) | 0.434 | 6.17 | 0.851 | 5.00 | 0.989 | < 7.00 | 0.977 | < 5.70 | 0.851 | 5.19 | 0.959 | < 6.29
28 | K5 (thyroid, adherent) | 0.588 | 5.76 | 0.919 | < 4.80 | 0.974 | < 7.00 | 0.899 | < 5.70 | 0.938 | < 4.99 | 0.83 | 6.52
29 | KARPAS-45 (lymphoblastic leukaemia, suspension) | 0.651 | 5.62 | 0.961 | < 4.80 | 0.991 | < 7.00 | 0.854 | 5.92 | 0.492 | 6.21 | 0.897 | 6.35
30 | KARPAS-299 (anaplastic large cell lymphoma, suspension) | 0.56 |  | 0.888 | 4.90 | 0.984 | < 7.00 | 0.876 | 5.84 | 0.895 | 5.06 | 0.992 | < 6.29
31 | KARPAS-422 (B-cell lymphoma, suspension) | 0.487 | 6.03 | 0.891 | < 4.80 | 0.987 | < 7.00 | 0.988 | < 5.70 | 0.968 | < 4.99 | 0.91 | < 6.29
32 | KCL-22 (chronic myeloid leukaemia, suspension) | 0.468 | 6.08 | 0.909 | < 4.80 | 0.984 | < 7.00 | 0.864 | 5.88 | 0.226 | 6.92 | 0.976 | < 6.29
33 | KE-37 (lymphoblastic leukaemia, suspension) | 0.03 | > 7.20 | 0.968 | < 4.80 | 0.994 | < 7.00 | 0.653 | 6.53 | 0.813 | 5.40 | 0.839 | 6.63
34 | KELLY (neuroblastoma, adherent) | 0.424 | 6.20 | 0.956 | < 4.80 | 0.988 | < 7.00 | 0.945 | < 5.70 | 0.877 | 5.06 | 0.969 | < 6.29
35 | KGN (ovary, adherent) | 0.275 | 6.71 | 0.889 | < 4.80 | 0.927 | < 7.00 | 0.925 | < 5.70 | 0.88 | < 4.99 | 0.696 | 6.89
36 | KINGS-1 (glioma, adherent) | 0.806 | 4.92 | 0.974 | < 4.80 | 0.939 | < 7.00 | 0.953 | < 5.70 | 0.951 | < 4.99 | 0.873 | < 6.29
37 | KM-H2 (Hodgkin lymphoma, suspension) | 0.189 | 6.84 | 0.991 | < 4.80 | 0.993 | < 7.00 | 0.991 | < 5.70 | 0.941 | < 4.99 | 0.962 | < 6.29
38 | KMOE-2 (acute myeloid leukaemia, suspension) | 0.544 | 5.89 | 0.968 | < 4.80 | 0.983 | < 7.00 | 0.871 | 5.81 | 0.6 | 5.93 | 0.963 | < 6.29
39 | KNS-42 (glioma, adherent) | 0.514 | 5.96 | 0.94 | < 4.80 | 0.977 | < 7.00 | 0.984 | < 5.70 | 0.889 | < 4.99 | 0.952 | < 6.29
40 | KNS-81-FD (glioma, adherent) | 0.573 | 5.77 | 0.93 | < 4.80 | 0.972 | < 7.00 | 0.956 | < 5.70 | 0.967 | < 4.99 | 0.932 | < 6.29
41 | KU812 (chronic myeloid leukaemia, suspension) | 0.203 | 6.83 | 0.924 | < 4.80 | 0.987 | < 7.00 | 0.584 | 6.68 | 0.142 | 7.25 | 0.934 | < 6.29
42 | KY821 (leukaemia, suspension) | 0.58 | 5.79 | 0.945 | < 4.80 | 0.991 | < 7.00 | 0.93 | < 5.70 | 0.968 | < 4.99 | 0.991 | < 6.29
43 | L-363 (myeloma, suspension) | 0.434 | 6.17 | 0.983 | < 4.80 | 0.99 | < 7.00 | 0.875 | 5.82 | 0.953 | < 4.99 | 0.97 | < 6.29

pIC50: −log10 of the molar value. By IC50 is meant the dose at which the fit gives 50% viability; a fit beyond the top or the lowest dose is shown as a bound at that dose. The AUC spans the tested range (256-fold, ending at the top dose) of the same fit; it is 1 without any effect and falls as sensitivity rises. For part of these data: A top dose marked as inferred was derived from the fitted curves, not read from the paper.
